This passage reports binding results from publication PMC4667432.

The chains behind the UniProt entries cited, without tags or fusion partners.
UniProt P46096: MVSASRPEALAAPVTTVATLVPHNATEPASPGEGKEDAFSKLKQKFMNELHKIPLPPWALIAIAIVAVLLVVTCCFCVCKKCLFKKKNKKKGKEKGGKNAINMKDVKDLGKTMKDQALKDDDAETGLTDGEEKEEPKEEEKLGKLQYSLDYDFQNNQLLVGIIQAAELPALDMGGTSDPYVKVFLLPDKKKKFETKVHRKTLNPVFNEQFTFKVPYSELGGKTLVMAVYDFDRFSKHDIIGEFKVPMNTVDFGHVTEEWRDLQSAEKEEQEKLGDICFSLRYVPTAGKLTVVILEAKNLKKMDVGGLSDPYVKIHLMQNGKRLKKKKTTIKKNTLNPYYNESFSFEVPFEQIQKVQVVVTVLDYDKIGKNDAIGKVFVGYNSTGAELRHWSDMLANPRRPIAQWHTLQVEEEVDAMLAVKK
UniProt P60879: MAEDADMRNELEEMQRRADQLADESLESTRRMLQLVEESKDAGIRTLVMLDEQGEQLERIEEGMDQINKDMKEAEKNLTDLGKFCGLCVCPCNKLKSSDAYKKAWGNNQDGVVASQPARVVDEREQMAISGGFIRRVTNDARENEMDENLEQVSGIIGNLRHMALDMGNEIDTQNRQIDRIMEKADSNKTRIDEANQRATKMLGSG
UniProt P63045: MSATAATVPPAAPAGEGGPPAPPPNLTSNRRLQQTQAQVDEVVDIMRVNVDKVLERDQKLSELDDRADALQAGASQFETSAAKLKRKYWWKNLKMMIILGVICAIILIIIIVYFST
UniProt P21707: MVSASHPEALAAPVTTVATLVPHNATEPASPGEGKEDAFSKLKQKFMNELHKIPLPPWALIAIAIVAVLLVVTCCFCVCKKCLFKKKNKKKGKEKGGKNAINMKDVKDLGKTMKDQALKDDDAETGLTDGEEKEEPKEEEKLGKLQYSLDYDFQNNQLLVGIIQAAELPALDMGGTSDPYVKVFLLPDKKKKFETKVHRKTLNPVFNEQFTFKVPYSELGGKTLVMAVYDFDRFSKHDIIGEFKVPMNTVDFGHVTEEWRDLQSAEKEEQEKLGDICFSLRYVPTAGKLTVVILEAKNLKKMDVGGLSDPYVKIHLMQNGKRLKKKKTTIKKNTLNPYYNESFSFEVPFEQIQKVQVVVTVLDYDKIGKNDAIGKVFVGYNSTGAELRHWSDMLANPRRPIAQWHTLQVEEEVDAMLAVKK
UniProt P63044: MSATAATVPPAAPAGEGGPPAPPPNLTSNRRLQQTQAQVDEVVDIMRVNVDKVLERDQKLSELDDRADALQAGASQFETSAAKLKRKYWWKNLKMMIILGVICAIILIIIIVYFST

These are yes or no findings as the source states them, for the method shown. For some assays here: In cells and extracts the contact can be indirect. Some entries that bind do so weakly or less than the wild type. For some assays here: Tags and fused reporters may be left off the sequences shown.

For test [1], the target named is T1, Dvl1 full length fused to the GAL4 DNA-BD (yeast two-hybrid bait) (UniProt P51141).
T1 sequence: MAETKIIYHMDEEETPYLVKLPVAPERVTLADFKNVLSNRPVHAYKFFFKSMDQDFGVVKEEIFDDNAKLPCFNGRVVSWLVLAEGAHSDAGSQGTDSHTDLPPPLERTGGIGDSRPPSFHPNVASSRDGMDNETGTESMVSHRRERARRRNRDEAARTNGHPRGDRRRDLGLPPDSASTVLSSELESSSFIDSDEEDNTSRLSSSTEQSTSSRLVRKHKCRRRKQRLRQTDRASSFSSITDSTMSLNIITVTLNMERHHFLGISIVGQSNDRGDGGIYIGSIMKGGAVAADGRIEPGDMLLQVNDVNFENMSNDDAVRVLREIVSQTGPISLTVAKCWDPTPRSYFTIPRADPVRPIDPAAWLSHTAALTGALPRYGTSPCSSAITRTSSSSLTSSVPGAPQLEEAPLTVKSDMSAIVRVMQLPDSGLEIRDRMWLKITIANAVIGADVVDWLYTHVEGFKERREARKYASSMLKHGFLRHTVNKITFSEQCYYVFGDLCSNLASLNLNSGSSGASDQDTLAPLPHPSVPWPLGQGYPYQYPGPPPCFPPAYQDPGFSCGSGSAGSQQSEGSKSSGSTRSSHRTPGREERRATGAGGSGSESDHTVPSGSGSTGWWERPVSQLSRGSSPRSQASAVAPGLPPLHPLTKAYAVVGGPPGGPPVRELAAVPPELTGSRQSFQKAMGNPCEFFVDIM
Briefly: two-hybrid; Dvl1 fused to the GAL4 DNA-BD (pGBKT7, AH109) as bait, SNARE proteins fused to the GAL4 AD (pGADT7, Y187) as prey; mating; growth on media lacking Histidine or Histidine and Adenine.

Test [2] concerns the target T2, Dishevelled-1 (Dvl1), endogenous in mature rat hippocampal neurons (rat (endogenous in hippocampal neurons)) (UniProt Q9WVB9).
T2 sequence: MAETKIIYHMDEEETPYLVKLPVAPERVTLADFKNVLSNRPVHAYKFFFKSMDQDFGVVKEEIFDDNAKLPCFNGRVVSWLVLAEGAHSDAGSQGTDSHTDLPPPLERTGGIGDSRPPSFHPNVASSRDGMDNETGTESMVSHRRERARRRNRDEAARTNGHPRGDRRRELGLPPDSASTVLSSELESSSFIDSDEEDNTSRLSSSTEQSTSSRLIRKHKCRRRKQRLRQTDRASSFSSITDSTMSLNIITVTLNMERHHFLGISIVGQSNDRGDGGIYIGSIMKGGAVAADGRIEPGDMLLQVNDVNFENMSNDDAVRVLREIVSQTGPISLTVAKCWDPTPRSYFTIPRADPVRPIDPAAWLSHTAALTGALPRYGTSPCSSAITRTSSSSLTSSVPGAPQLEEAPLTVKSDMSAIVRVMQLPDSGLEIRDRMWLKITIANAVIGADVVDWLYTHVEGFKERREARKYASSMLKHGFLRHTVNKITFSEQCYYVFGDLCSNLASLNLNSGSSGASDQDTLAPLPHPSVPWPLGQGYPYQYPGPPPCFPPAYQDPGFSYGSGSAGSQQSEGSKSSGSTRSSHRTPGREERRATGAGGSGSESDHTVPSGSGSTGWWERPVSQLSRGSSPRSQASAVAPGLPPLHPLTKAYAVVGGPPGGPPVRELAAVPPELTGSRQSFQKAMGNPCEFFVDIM
Description: co-IP; endogenous proteins; mature high-density hippocampal cultures lysed in Triton buffer (50 mM Hepes-NaOH, 0.1 M NaCl, 4 mM EGTA, 2 mM MgCl2, 0.5% Triton X-100); Dvl1 monoclonal antibody and protein G-Sepharose overnight at 4 °C; western blot; also after treatment of the neurons with Wnt7a (more Syt-1 with Dvl1) or Sfrps (less). A general note: Immunoblotting shows a protein as a band on a membrane.

Test [3] deals with T3, Dishevelled-1 (Dvl1), endogenous in adult mouse brain synaptosomes (mouse (endogenous in adult brain)) (UniProt P51141).
T3 sequence: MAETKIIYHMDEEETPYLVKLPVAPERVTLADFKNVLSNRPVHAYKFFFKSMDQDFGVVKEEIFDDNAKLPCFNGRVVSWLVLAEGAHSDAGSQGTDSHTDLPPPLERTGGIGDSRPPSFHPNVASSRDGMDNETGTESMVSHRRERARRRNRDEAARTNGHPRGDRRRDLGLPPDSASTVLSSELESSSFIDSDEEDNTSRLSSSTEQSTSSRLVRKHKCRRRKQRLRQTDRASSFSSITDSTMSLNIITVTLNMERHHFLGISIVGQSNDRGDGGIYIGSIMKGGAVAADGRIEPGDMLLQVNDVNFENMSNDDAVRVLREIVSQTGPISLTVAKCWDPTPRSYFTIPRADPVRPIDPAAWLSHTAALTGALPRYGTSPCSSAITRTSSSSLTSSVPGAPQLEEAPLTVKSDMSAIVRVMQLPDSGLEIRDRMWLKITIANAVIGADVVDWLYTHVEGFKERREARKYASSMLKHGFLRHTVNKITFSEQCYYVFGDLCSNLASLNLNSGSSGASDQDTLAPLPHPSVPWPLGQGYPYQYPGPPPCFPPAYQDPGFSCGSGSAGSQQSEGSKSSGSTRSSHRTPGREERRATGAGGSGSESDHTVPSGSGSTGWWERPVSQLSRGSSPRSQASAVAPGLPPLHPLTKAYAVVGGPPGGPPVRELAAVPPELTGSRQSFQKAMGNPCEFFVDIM
Description: co-IP; endogenous proteins; synaptosomal fraction prepared from adult mouse brain homogenate; western blot.

Test [4] has as its target T4, full-length Dvl1-Flag (UniProt P51141).
T4 sequence: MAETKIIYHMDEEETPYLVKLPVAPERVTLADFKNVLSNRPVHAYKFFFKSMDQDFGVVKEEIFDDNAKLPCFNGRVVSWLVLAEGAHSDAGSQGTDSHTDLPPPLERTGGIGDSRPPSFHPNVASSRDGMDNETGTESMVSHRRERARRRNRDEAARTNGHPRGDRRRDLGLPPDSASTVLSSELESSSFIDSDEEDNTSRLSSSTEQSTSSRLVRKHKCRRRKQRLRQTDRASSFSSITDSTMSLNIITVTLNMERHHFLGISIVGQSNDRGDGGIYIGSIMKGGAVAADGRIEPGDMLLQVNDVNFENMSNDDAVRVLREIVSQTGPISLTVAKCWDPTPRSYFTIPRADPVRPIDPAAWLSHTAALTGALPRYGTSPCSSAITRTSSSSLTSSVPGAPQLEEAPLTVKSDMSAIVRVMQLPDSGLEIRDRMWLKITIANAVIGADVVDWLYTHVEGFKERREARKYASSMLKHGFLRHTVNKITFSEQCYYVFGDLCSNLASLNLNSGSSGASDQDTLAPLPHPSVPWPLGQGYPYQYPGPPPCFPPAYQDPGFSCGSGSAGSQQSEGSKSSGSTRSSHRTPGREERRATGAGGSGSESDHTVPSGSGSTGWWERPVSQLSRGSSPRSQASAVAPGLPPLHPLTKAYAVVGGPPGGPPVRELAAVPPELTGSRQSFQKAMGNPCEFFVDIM
Briefly: co-IP; HEK-293 cells transfected with Dvl1-Flag and Syt-1-T7, with or without Dvl1-BD-HA; T7 and Flag antibodies; which protein was precipitated not given.

Test [5] deals with Syt-1-T7 (UniProt P46096). Described as above.

Take “SNAP25 full length fused to the GAL4 activation domain (yeast two-hybrid prey) (from UniProt P60879 1-206)”: the binding entry in test [1] is listed as “no binding”. As for “Synaptobrevin/VAMP2, endogenous in mature rat hippocampal neurons (from UniProt P63045 1-116)”, the binding result in test [2] is on record as “no binding”. As to “Synaptotagmin-1 (Syt-1), endogenous in adult mouse brain synaptosomes (from UniProt P46096 1-421)”, the binding entry in test [3] is “binds”. As for “Synaptotagmin-1 (Syt-1), endogenous in mature rat hippocampal neurons (from UniProt P21707 1-421)”, the binding entry in test [2] is listed as “binds”. For “Syt-1 full length fused to the GAL4 activation domain (yeast two-hybrid prey) (from UniProt P46096 1-421)”, the binding entry in test [1] is “binds”.

In the case of Syt-1-T7 (from UniProt P46096 1-421), the binding result in test [4] is given as “binds”. “VAMP2 full length fused to the GAL4 activation domain (yeast two-hybrid prey) (from UniProt P63044 1-116)”: in test [1], the binding result is reported as “no binding”.

B1: Dvl1-BD (amino acids 141-227 of Dvl1 fused to HA) (domain or fragment, UniProt P51141 141-227)
chain: VSHRRERARRRNRDEAARTNGHPRGDRRRDLGLPPDSASTVLSSELESSSFIDSDEEDNTSRLSSSTEQSTSSRLVRKHKCRRRKQR
Take B1: the binding result in test [5] is on record as “binds”.
